Assay results from the supplement of paper PMC3334620.
Over roughly 33,000 sequences, “E-score (-0.5 to 0.5)” has its median near -0.016; the highest 2% begin near 0.32. Some of the results follow.

What follows are sequences tested against T1, Stp1 (UniProt B3LFK1) (assay: PBM E-score (8-mer binding enrichment) (E-score (-0.5 to 0.5)); higher = stronger / more preferred TF binding; most listed sequences are background and not binding sites). Details: protein concentration: 200 nM; construct: GST-full length.
T1 sequence: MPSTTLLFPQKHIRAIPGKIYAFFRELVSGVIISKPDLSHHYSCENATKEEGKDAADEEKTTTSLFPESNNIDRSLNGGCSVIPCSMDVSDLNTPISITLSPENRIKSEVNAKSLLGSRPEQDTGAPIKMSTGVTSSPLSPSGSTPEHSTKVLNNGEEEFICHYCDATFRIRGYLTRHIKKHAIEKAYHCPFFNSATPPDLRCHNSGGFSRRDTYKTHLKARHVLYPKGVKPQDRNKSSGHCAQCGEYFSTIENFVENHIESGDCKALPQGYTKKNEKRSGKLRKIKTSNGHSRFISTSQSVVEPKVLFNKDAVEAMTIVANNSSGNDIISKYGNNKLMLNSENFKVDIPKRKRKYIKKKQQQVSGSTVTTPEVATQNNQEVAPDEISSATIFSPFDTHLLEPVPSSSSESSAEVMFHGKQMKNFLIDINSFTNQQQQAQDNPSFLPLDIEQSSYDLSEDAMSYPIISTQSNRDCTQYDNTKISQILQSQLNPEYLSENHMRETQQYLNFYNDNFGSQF
How it was run: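 Masliner-normalised scans of fluorescent anti-GST signal were the basis for scoring. That signal came from GST-tagged yeast transcription factors applied at about 100-200 nM to double-stranded universal all-10-mer Agilent arrays on fresh or once-stripped slides. Each ungapped eight-base word, pooled with its reverse complement, received an E-score from the Universal PBM Analysis Suite.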

Sequence	PBM E-score
CTCCAACA	-0.0881
CATACGAC	-0.00709
AGTTCAAC	-0.137
CAACTGTG	-0.0366
AGGGGGCG	-0.0306
AGTCTACA	-0.106
CAATCCCC	-0.294
AGACCTAA	-0.234
TAATACGA	0.0528
TCTAGAAA	0.0528
ATTAGTGG	0.0954
AAGTTAAG	-0.117
ACCGTTTA	0.168
AGCGCTAA	0.13
CTCTATAC	-0.0646
CGGACTCA	-0.19
AATAACCC	0.0684
TAACAAGA	0.0726
AATGTGGT	0.0253
AAATACAG	0.0368
GGACTCCC	-0.334
GATATGAC	0.0218

Sequence	PBM E-score
ACGACCTA	-0.0634
ACCTTCCA	0.0663
AGGGCTTA	-0.265
AGCGTGAG	0.0678
AATTCGCT	0.151
ATGCAGTG	0.0912
AACTGTCG	0.0925
AGCGACAC	-0.0137
CCTTCTTC	-0.0872
ACGGCTGA	0.147
AATCCTCC	-0.17
AATCTTCG	0.196
TGAACGCA	0.0368
CGGTGATC	-0.121
CTATCTCC	-0.119
AGCCGACA	-0.123
TGGGCCAA	-0.0401
GAAAACAA	0.149
GGAGATTA	-0.0966
AAGCGATG	-0.0673
ATGTATAA	-0.0152
ATGGAAGA	-0.0539

Sequence	PBM E-score
CAAGATAC	0.0121
CAGGTGGG	-0.132
ATAAGCAT	0.00239
CCCCAGCC	-0.336
CGTCGCCC	-0.13
AATCCCAC	-0.275
GCTCCAGA	-0.155
CGATAGGA	-0.162
ACGGACGG	0.0736
CACAGCTA	-0.135
ATGTGGGC	-0.215
CATTACGC	-0.00938
GAAGGGTA	-0.0389
GCCATGCC	0.324
GCATTGGA	0.056
ATACTAAT	0.0391
GTGGGTTA	-0.085
TCAAAGAA	-0.0561
CAGATATG	-0.0843
ATTCTAGC	0.0362
CATAATAC	0.051
AGAATAAT	0.226

Sequence	PBM E-score
TCTTGGAA	0.0702
AGGCCACC	-0.233
TAAAAGCA	0.0501
GACCCCCC	-0.439
ATACTTCG	0.0557
CTTCGGAA	0.0613
CACTTAAA	0.0992
AGCATTTC	0.0271
AGGCTCAC	-0.14
ATGTTTGG	0.0181
AAAGTTGA	0.00862
CCTCTACA	-0.269
GGACGAAA	0.101
AAGCGCCG	0.465
CCAACAAC	-0.119
GATCTTGA	0.0408
CAGTGTAC	-0.0498
TAACAATA	0.0276
GTGTGAGA	0.0629
AATCTACG	-0.0982
AATCAATG	0.174
GGTGCTAA	0.0579

Sequence	PBM E-score
AATTCAGG	0.155
CGCGTGGC	0.201
CTCACAAA	0.109
CACAACTA	0.112
ATGGTTGA	0.0822
ACGGCCAC	0.3
CGCAGGGC	0.273
ACTGGAAT	-0.0812
GAGAGAAC	-0.0759
GCTCCTGA	0.0243
CACAAGCG	0.0749
AATGTTAG	-0.0471
CGGTTGCC	0.0616
TATCTTCA	0.046
CGGAATAG	0.073
ACTGCGGC	0.381
CGTAACGA	-0.11
CGTTCGCA	-0.0217
CCGGGTAG	-0.306
TTAGCCAA	-0.081
TAACAGAA	0.195
CGCACCCC	-0.118
